# In all, about 310,000 compounds went through this assay and about 2,200 (0.71%) showed an effect of 50% or more. Effects have a minus sign here. This is one part of the list.
# Biological target: human ether-à-go-go-related gene (hERG) potassium channel (human, UniProt Q12809)
# Test: primary screen, population patch clamp on CHO cells stably expressing hERG
# Chain of human ether-à-go-go-related gene (hERG) potassium channel (Q12809 whole entry, looked up): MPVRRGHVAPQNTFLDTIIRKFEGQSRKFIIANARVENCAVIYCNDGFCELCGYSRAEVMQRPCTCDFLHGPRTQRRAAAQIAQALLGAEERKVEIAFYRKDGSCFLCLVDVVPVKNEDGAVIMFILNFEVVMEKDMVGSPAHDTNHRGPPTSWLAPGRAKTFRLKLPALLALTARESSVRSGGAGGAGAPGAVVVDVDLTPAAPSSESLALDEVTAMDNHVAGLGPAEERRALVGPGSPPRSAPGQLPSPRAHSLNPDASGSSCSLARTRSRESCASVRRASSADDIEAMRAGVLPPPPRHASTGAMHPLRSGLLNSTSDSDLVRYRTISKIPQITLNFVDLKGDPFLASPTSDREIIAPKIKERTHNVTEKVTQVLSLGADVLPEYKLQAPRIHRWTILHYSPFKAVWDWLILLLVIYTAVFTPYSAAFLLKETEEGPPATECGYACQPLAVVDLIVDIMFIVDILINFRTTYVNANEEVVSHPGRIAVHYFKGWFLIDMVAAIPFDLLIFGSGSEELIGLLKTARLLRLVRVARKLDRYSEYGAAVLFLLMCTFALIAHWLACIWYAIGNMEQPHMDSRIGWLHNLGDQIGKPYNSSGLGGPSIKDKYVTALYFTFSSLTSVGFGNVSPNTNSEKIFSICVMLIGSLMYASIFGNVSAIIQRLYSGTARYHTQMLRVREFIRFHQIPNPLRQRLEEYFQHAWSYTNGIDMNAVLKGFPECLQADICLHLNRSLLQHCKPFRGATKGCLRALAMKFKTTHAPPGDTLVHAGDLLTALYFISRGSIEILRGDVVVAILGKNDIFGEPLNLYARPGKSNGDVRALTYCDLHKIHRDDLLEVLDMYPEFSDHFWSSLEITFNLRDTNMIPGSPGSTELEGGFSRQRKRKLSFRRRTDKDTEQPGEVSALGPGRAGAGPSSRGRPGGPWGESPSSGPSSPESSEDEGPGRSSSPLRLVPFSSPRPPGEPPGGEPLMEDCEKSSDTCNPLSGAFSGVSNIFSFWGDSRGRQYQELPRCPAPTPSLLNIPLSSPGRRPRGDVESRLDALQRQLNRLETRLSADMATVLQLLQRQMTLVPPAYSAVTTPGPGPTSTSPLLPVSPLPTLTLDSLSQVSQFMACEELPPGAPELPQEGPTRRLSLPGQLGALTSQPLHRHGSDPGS
row,Compound,"hERG current change (%, negative = inhibition) at 1uM"
1,O/N=C1\CCC2CN(C3CCCCC3)CC2C1 (stereo not shown),-4.87%
2,O=Cc1cn(Cc2c(F)cccc2Cl)c2ccccc12,5.7%
3,CCN(C(=O)COC(=O)c1ccc(OCc2c(C)noc2C)cc1)c1ccccc1,12.1%
4,N#CC1=C2SCN(Cc3ccco3)CN2C(=O)CC1c1ccccc1F (stereo not shown),-0.638%
5,Cn1c(SCCOc2ccc(F)cc2)nnc1-c1ccncc1,-8.63%
6,O=C(CN(Cc1ccco1)C(=O)c1ccc([N+](=O)[O-])cc1)Nc1ccccc1C(F)(F)F,-0.169%
7,CC(=O)NC(c1ccco1)c1ccc2cccnc2c1O (stereo not shown),-3.48%
8,c1ccc(-c2nnc(N3CCN(c4ccccn4)CC3)c3ccccc23)cc1,-6.02%
9,COc1ccccc1-c1nc2ccccc2nc1-c1ccccc1OC,11.8%
10,Cc1cccc(N2CCN(C(=O)CSc3ccc4c(c3)OCCO4)CC2)c1C,3.25%
11,CSC1=C(C#N)C(c2ccc(C)cc2)C2=C(CCCC2=O)N1 (stereo not shown),8.17%
12,CCCS(=O)(=O)N1CCN(c2ccccn2)CC1,10.2%
13,N#Cc1cc2cc3c(cc2nc1SCC(=O)N1CCOCC1)OCCO3,9.02%
14,CC1=C2C(=O)OC(c3ccoc3)C2(C)CCC1 (stereo not shown),1.19%
15,N#CCc1ccc(OC(=O)Nc2ccccc2)cc1,0.885%
16,COc1ccccc1/C=C/C(=O)Nc1cccc(S(=O)(=O)NC2=NCCCCC2)c1,13.1%
17,COc1cc2[nH]c(=S)n(CCN3CCOCC3)c(=O)c2cc1OC,6.18%
18,O=C(Nc1cccc(-c2csc(Nc3cccc(C(F)(F)F)c3)n2)c1)c1cc([N+](=O)[O-])cc(C(F)(F)F)c1,-1.44%
19,CCc1ccc(C2CC(c3ccccc3)n3ncnc3N2)cc1 (stereo not shown),-0.803%
20,CCC1CCCCN1C(=S)Nc1cccc(S(=O)(=O)N(C)C)c1 (stereo not shown),6.94%
21,O=C(N[C@@H](Cc1ccccc1)C(=O)CCl)OCc1ccccc1,16.3%
22,COc1ccc(OC)c(-c2cc(C(=O)N3CCOCC3)no2)c1,10.6%
23,COc1ccc(NC(=O)COC(=O)c2ccc(NS(=O)(=O)/C=C/c3ccccc3)cc2)cc1,14.2%
24,CCN(CCNS(=O)(=O)c1ccc2c(c1)oc(=O)n2C)c1ccccc1,-0.968%
25,Cc1nc2c(cnn2-c2ccccc2Cl)c(=O)n1-c1ccc(C(C)C)cc1,17.3%
26,CCOC(=O)c1c(NC(=O)CCC(=O)N(CC)CC)sc2c1CC(C)(C)OC2,6.66%
27,CC1CCCCC12NC(=O)N(CC(=O)NC(=O)Nc1ccc3c(c1)OCCO3)C2=O (stereo not shown),8.38%
28,Nc1nc(O)c(Sc2ccccc2[N+](=O)[O-])c(=O)[nH]1,14.8%

row,Compound,"hERG current change (%, negative = inhibition) at 1uM"
1,Cc1ccc(C(=O)NCC(=O)N2CCCC(C(F)(F)F)C2)s1 (stereo not shown),8.18%
2,CCOc1cc(/C=C2\CCn3c2nc2cc(Cl)ccc2c3=O)ccc1O,17.6%
3,O=C(CCCCn1c(=O)c2ccccc2n(CC(=O)Nc2ccccc2)c1=O)NCc1ccco1,14.7%
4,C=CCN1c2ccccc2[C@]23C[C@@H](C(=O)OC)N(C(=O)c4cc(C)oc4C)C2=NC(C(=O)OC)=C(C(=O)OC)[C@H]13,3.9%
5,Cc1ccc(C#N)c(SCC(=O)Nc2nccs2)n1,12.7%
6,O=C(O)/C(CC(=O)c1ccc(Cl)cc1)=N/Nc1ccc([N+](=O)[O-])cc1[N+](=O)[O-],11.4%
7,COc1cc(NC(=O)c2ccccc2[N+](=O)[O-])ccc1NC(=O)c1cc2ccccc2o1,13.2%
8,COc1ccc(N(CC(=O)Nc2c(C)n(C)n(-c3ccccc3)c2=O)S(=O)(=O)c2ccc(F)cc2)cc1,0.402%
9,Cc1cc(C)cc(OC(C)C(=O)NCCCn2ccnc2)c1 (stereo not shown),9.27%
10,O=[N+]([O-])c1ccc(/C=N/NC(=S)Nc2ccccc2C(F)(F)F)o1,-0.186%
11,COc1ccccc1N1CCN(C2CC(=O)N(c3ccc(F)cc3)C2=O)CC1 (stereo not shown),11.3%
12,COc1ccc(/C=N/N2C(C)CCCC2C)cc1OC (stereo not shown),13.5%
13,CCOC(=O)C1C(c2ccc([N+](=O)[O-])cc2)C2C(=O)NN=C2CC1(C)O (stereo not shown),15%
14,COC(=O)c1ccc(N2CCOCC2)c(F)c1,10%
15,CCN(CC(=O)Nc1cc(Cl)ccc1C)C(=O)CCOc1ccc(C)cc1,12%
16,COCc1cc(C)nc(OCC(=O)N/N=C/c2ccccc2)c1C#N,8%
17,Nc1c(C(=O)NCc2ccco2)c2nc3ccccc3nc2n1Cc1ccccc1,11.4%
18,N#Cc1ccc(C(CC(=O)O)N2Cc3ccccc3C2=O)cc1 (stereo not shown),13.1%
19,COCCNC(=O)c1ccc(NC(=O)C2(c3ccccc3)CCCC2)cc1,-0.294%
20,Cc1ccc(C)c(N2CCN(C(=O)c3ccc(N4CCOCC4)c([N+](=O)[O-])c3)CC2)c1,1.3%
21,O=C(NCCCl)NNc1c(Cl)cc(Cl)cc1Cl,6.45%
22,O=C(CN(Cc1ccccc1)C(=O)CNS(=O)(=O)c1ccccc1)NCc1ccco1,15.3%
23,O=C(CS(=O)(=O)Nc1ccc(F)cc1Cl)Nc1ccc(F)cc1Cl,14.2%
24,COc1ccccc1N(CC(O)Cn1c(C)nc2ccccc21)S(=O)(=O)c1ccccc1 (stereo not shown),3.24%
25,CCCCNC(=S)NNC(=O)c1csc(C)c1C,-1.96%
26,O=C(Nc1ccc(C(F)(F)F)cc1)C1CCN(c2cnccn2)CC1,10.6%
27,Cc1cc(C(=O)Nc2cccc(C)c2C)c2ccccc2n1,9.46%
